Assay results from PubChem BioAssay AID1476 (National Center for Advancing Translational Sciences (NCATS), 2009).
In all, about 200,000 compounds went through this assay and about 4,500 (2.2%) were called active. The shares of active, inactive and inconclusive entries below differ from those in the screen. The call rests on the fitted dose curve; in most records, active means well fitted inhibition curve with a large enough effect; inconclusive means small, poorly fitted or top-dose-only effect, or effect the other way; inactive means flat fitted curve, though single readings scatter. Potencies beside an inconclusive call are fits to weak or partial responses and may not hold up.

The compounds below were run against Cruzipain (Trypanosoma cruzi) (UniProt P25779) (assay: qHTS Assay for Promiscuous and Specific Inhibitors of Cruzain (without detergent)). Conditions: purified cruzain, Z-FR-AMC fluorescence, no detergent.
Chain of UniProt P25779 (P25779 whole entry, looked up): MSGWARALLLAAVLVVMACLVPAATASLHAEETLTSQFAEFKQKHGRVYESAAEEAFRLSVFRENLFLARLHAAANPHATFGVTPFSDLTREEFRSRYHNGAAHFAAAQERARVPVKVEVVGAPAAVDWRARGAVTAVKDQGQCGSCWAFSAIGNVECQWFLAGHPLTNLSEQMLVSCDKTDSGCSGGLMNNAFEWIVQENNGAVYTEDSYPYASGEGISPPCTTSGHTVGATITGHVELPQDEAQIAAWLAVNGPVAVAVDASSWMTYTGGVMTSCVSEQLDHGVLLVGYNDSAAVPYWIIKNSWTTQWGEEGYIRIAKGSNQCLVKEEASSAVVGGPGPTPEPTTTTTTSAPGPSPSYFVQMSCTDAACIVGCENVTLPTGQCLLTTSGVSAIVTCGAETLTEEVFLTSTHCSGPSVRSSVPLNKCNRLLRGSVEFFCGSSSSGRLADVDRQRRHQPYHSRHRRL
In short: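 Purified cruzain at 1.5 nM, pre-incubated 15 min with compound at room temperature in 100 mM sodium acetate pH 5.5, 5 mM DTT, 0.00005% Triton X-100. Reaction started with 2 uM Z-FR-AMC; AMC fluorescence increase over 60 s gives rate.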
Further: nearly all actives have a fitted effect of over 40% in size.
Potency means the concentration at half of the fitted maximal effect; tags describe the fitted curve by direction and shape.
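Wherever max response, negative = inhibition is given: plate controls were enzyme without inhibitor for no effect and buffer without enzyme for full effect.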

Row | Structure (SMILES) | max response, negative = inhibition | Potency
1 | CCC[C@H](Sc1nc(N)nc2nc[nH]c12)C(=O)O | inactive: 7.19% | 
2 | COc1ccccc1C(=O)Nc1ccc(S(=O)(=O)N2CCc3ccccc32)cc1 |  | inconclusive: 31.6 µM [inhibitor, single point]
3 | COc1ccc(C(=O)Nc2ccc(OCc3cc(=O)n4ccccc4n3)cc2)cc1 | inactive: 8.38% | 
4 | COc1cc(/C=C(/C#N)c2ccc(C)cc2)ccc1Oc1ccc([N+](=O)[O-])cn1 |  | active: 25.1 µM
5 | N#C/C(=C\c1ccc(-c2ccc(F)cc2F)o1)c1nc2ccccc2[nH]1 |  | active: 12.6 µM
6 | COc1ccc(NS(=O)(=O)c2cc(NC(=O)c3ccco3)ccc2N2CCCC2)cc1 |  | inconclusive: 39.8 µM [inhibitor, single point]
7 | Cc1noc2ncc(C(=O)c3cc(F)ccc3O)cc12 | inactive: -5.45% | 
8 | Cc1ccc(NC(=O)CN2C(=O)COc3ccc(S(=O)(=O)N4CCCCCC4)cc32)cc1C | inactive: -0.694% | 
9 | Clc1ccc(C(c2ccc(Cl)cc2)C(Cl)(Cl)Cl)cc1 |  | inconclusive: 31.6 µM [inhibitor, single point]
10 | CCCc1nc2ccccc2c(=O)n1/N=C/c1c(C)[nH]n(-c2ccc(C)cc2)c1=O |  | inconclusive: 25.1 µM [activator, partial curve]
11 | O=C(Nc1ccccc1C(=O)NCc1cccnc1)c1ccco1 | inactive: 10.5% | 
12 | CCOc1ccccc1CNC(=O)CCc1cn(Cc2ccc(Cl)cc2)c2ccccc12 | inactive: -24.8% | 
13 | CC(NC(=O)c1cc(-c2ccc(Br)cc2)on1)c1ccccc1 (configuration not stated) |  | active: 15.8 µM
14 | COC(=O)[C@@]1(Cc2ccccc2)[C@H]2c3cc(C(=O)N(C)C)n(CCN4CNCC4=O)c3C[C@H]2CN1C(=O)c1ccccc1 |  | inconclusive: 31.6 µM [activator, single point]
15 | O=C(c1ccccc1)c1nn(-c2ccc(Cl)cc2)cc1C(=O)c1cc2ccccc2oc1=O |  | active: 25.1 µM
16 | Cc1n[nH]c(C)c1S(=O)(=O)N(CC(=O)NCc1ccccc1Cl)c1ccc(C(C)C)cc1 | inactive: -5.43% | 
17 | Cn1c(=NC(=O)c2ccco2)sc2cccc(F)c21 |  | inconclusive: 25.1 µM [inhibitor, single point]
18 | CCOC(=O)c1c(C)c(C(=O)N2CCN(c3cccc(Cl)c3)CC2)c(C)n1C |  | inconclusive: 31.6 µM [activator, single point]
19 | COc1c(N2CCN(C(=S)NCc3ccccc3)C(C)C2)c(F)cc2c(=O)c(C(=O)O)cn(C3CC3)c12 (configuration not stated) |  | inconclusive: 31.6 µM [inhibitor, single point]
20 | COc1ccc(COc2cc(-c3cccc(OC)c3)nc3ccc(NC(=O)c4ccccc4)cc23)cc1 |  | active: 7.94 µM
21 | COc1ccc2[nH]c(=O)c(CN(Cc3ccccc3)Cc3nnnn3CC3CCCO3)cc2c1 (configuration not stated) |  | inconclusive: 25.1 µM [activator, single point]
22 | Cc1ccc(Cl)cc1NCc1nnc2n1CCCCC2 | inactive: -0.534% | 
23 | Cc1c(C)n(Cc2ccccc2)c2ccc(C(=O)NCCc3ccccc3Cl)cc12 |  | active: 25.1 µM

Row | Structure (SMILES) | max response, negative = inhibition | Potency
24 | CCCCN(C)CCC(=O)Nc1ccc(Cl)cc1 | inactive: -0.803% | 
25 | Cc1nc(SC(C(=O)c2ccccc2)c2ccccc2)nc2ccccc12 (configuration not stated) |  | inconclusive: 39.8 µM [inhibitor, single point]
26 | O=C(CCC(=O)Nc1nnc(C2CCCCC2)s1)NCc1cccs1 |  | inconclusive: 39.8 µM [inhibitor, single point]
27 | O=c1[nH]c(SCc2ccccc2Cl)nc2c1cnn2-c1ccccc1 |  | active: 15.8 µM
28 | CCCc1nn2c(=O)cc(COc3ccc(/C=C(\C#N)C(=O)Nc4ccc(F)cc4)cc3)nc2s1 | inactive: -5.65% | 
29 | CCCCN(C)C(=O)C1CCC(CNS(=O)(=O)c2ccc3c(c2)CC(C)N3C(C)=O)CC1 (configuration not stated) |  | inconclusive: 39.8 µM [activator, single point]
30 | C=CCSC1=N/C(=C\c2cc(OC)c3c(c2)OCO3)C(=O)S1 |  | inconclusive: 31.6 µM [inhibitor, single point]
31 | CC1CC[C@@]2(C(=O)O)CCC3(C)C(=CCC4[C@]5(C)CC(O)C(O)[C@](C)(CO)C5C(O)C[C@@]43C)C2C1C (some centres not stated) |  | inconclusive: 31.6 µM [activator, partial curve]
32 | COc1cc(OC)c(-c2nn3c(-c4cccnc4)nnc3s2)cc1OC |  | inconclusive: 20 µM [activator, single point]
33 | CCOC(=O)N1CCC(NC(=O)CCc2c(C)nc3c(c(C)nn3C(C)(C)C)c2C)CC1 |  | inconclusive: 31.6 µM [activator, partial curve]
34 | O=C1CC(N2CCN(c3cccc(C(F)(F)F)c3)CC2)C(=O)N1c1ccccc1 (configuration not stated) |  | inconclusive: 39.8 µM [activator, single point]
35 | CC(=C/c1ccco1)/C=N/N1CCN(c2ccccc2)CC1 |  | inconclusive: 39.8 µM [inhibitor, single point]
36 | COc1ccc(NC(=O)CCn2nc(-c3ccccc3OC)c3c(C)cc(C)nc32)cc1 |  | inconclusive: 25.1 µM [activator, single point]
37 | N#Cc1c(NC(=O)CSc2ccccn2)oc(-c2ccccc2)c1-c1ccccc1 |  | inconclusive: 39.8 µM [inhibitor, single point]
38 | Cc1ccc2oc(-c3cc(NC(=O)c4ccc5c(c4)OCCO5)cc(C)c3O)nc2c1 | inactive: -3.6% | 
39 | Cc1ccc(C)c(CN2C(=O)C3(c4ccccc42)N(c2cccc(C(F)(F)F)c2)C(=O)CS3(=O)=O)c1 (configuration not stated) |  | active: 1.26 µM
40 | COC(=O)c1ccc(CSc2nc3ccccc3c(=O)n2-c2ccccc2)o1 |  | inconclusive: 39.8 µM [inhibitor, single point]
41 | O=C1/C(=C\c2ccc(Br)o2)SC(=Nc2ccccc2)N1c1ccccc1 |  | inconclusive: 31.6 µM [inhibitor, single point]
42 | O=C(c1cccs1)N(CC1CCCO1)c1nc(-c2ccccc2)cs1 (configuration not stated) |  | inconclusive: 25.1 µM [inhibitor, single point]
43 | N=c1c(C(=O)NCc2ccco2)cc2c(=O)n3ccccc3nc2n1CCc1ccccc1 |  | inconclusive: 39.8 µM [inhibitor, single point]
44 | O=C(CSc1nnc(-c2cccs2)n1-c1ccccc1)c1ccc2c(c1)OCCO2 |  | inconclusive: 31.6 µM [inhibitor, single point]
45 | C=Cc1ccccc1C=C | inactive: 4.38% | 
46 | Cc1ccc(Cl)cc1-n1ncc2c(NCCCn3ccnc3)ncnc21 | inactive: 9.76% | 

Row | Structure (SMILES) | max response, negative = inhibition | Potency
47 | Cc1ccc2c(=O)cc(C(=O)Nc3sc4c(c3C(N)=O)CCCC4)oc2c1 | inactive: -2.76% | 
48 | COc1ccc(NC(=O)Cc2c(Sc3ccccc3)c3ccccc3n2C)cc1 |  | inconclusive: 39.8 µM [inhibitor, single point]
49 | O=C(C1CCN(S(=O)(=O)Cc2ccccc2)CC1)N1CCN(c2ccc(F)cc2)CC1 |  | inconclusive: 39.8 µM [activator, single point]
50 | COC(=O)c1c(C)[nH]c(C(=O)COC(=O)Cc2ccc3c(c2)OCCO3)c1C |  | inconclusive: 25.1 µM [activator, single point]
51 | Cc1ccc(C2CC(=O)N(Cc3ccccc3)c3c2c(C)nn3-c2nc(C)cc(C)n2)cc1 (configuration not stated) |  | inconclusive: 39.8 µM [activator, single point]
52 | CC1CN(C(=O)N2CCC(C(=O)NCCC3=CCCCC3)CC2)c2cc(Cl)ccc2O1 (configuration not stated) |  | inconclusive: 39.8 µM [inhibitor, single point]
53 | CC(/C=N/NC(=O)c1cc(-c2ccc3ccccc3c2)n[nH]1)=C\c1ccco1 |  | inconclusive: 39.8 µM [inhibitor, single point]
54 | O=C(c1ccncc1)N1CCC[C@@]2(CCN(c3ccccn3)C2)C1 | inactive: 2.52% | 
55 | OCCN1CCN(C(=S)c2ccc(Cl)cc2)CC1 | inactive: 2.11% | 
56 | O/N=C\c1cccn1-c1ccc(Br)cc1 |  | inconclusive: 39.8 µM [inhibitor, single point]
57 | C[N+](C)(C)CCN[N@@+]1(C)CCCc2ccccc21 | inactive: 3.29% | 
58 | CC(C)(C)C1CCc2c(sc(NC(=O)C3CC=CCC3C(=O)O)c2C#N)C1 (configuration not stated) |  | inconclusive: 31.6 µM [activator, single point]
59 | CN1C[C@@H](C(=O)N[C@@]2(C)O[C@]3(O)C4CCCN4C(=O)[C@@H](Cc4ccccc4)N3C2=O)C=C2c3cccc4[nH]cc(c34)C[C@@H]21 (some centres not stated) |  | inconclusive: 31.6 µM [activator, partial curve, poor fit]
60 | COC(=O)c1ccc(NC(=O)CC2C(=O)N(c3ccc(F)cc3)C(=O)N2Cc2ccc(OC)cc2)cc1 (configuration not stated) | inactive: 4.95% | 
61 | Cc1ccc2[nH]cc(C(=O)CCl)c2c1 |  | inconclusive: 15.8 µM [inhibitor, partial curve]
62 | Cc1coc2cc3oc(=O)c4c(c3cc12)CCC4 | inactive: -24.2% | 
63 | COc1ccc(CCNC(=O)c2c(N)n(CCN3CCOCC3)c3nc4ccccc4nc23)cc1 |  | inconclusive: 25.1 µM [activator, partial curve]
64 | CCC(=O)Nc1ccc(C(=O)CSc2nc3ccc(C)cc3[nH]2)cc1 |  | inconclusive: 15.8 µM [inhibitor, partial curve, poor fit]
65 | CC(CO)(CO)Nc1ncnc2ccccc12 | inactive: 8.25% | 
66 | COC(=O)C1C2c3ccccc3OC1(C)N=c1s/c(=C/c3cn(C)nc3C)c(=O)n12 (configuration not stated) |  | inconclusive: 39.8 µM [activator, single point]
67 | COc1ccccc1NC(=O)c1oc2ccccc2c1NC(=O)c1ccccc1C(F)(F)F | inactive: -1.14% | 
